These results are taken from PubChem BioAssay AID1508624 (National Center for Advancing Translational Sciences (NCATS), 2021).

Screen size: about 48,000 compounds; about 120 (0.25%) were called active. Not shown: some 4% with an inconclusive outcome. Calls follow the shape of the dose curve; as a rule, active = well fitted activation curve with a large enough effect; inconclusive = small, poorly fitted or top-dose-only effect, or another doubt; inactive = no such curve, though single readings can be large or run the other way. The entries are a selection whose mix differs from that of the whole data set. The source gives no active or inactive call for entries shown without one.
Potency is read from the fitted curve at half-maximal effect.

The experiment is described as follows: Primary qHTS for Identification of Small Molecule Activators of Huntingtin-Antisense Promoter Activity. Also: nearly all actives have a fitted effect of over 55% in size. Particulars: HEK293 HTT-AS promoter firefly luciferase reporter, 24 h; activity change, positive = activation: at 57.5 µM (top of the series), percent change from vehicle, -100% = no light. The essentials:
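Quantitative HTS used concentration series of up to 57.5 uM final on HEK293 luciferase reporter cells, 24 h at 37 degrees C. Readout was Dual-Glo firefly luminescence.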
In general terms: Quantitative high-throughput screening tests each substance at several concentrations.
Consider `CCOc1ccc(NC(=O)c2sc3ccccc3c2Cl)cc1`, for which the activity change, positive = activation came to 69.3%. As to `COc1ccc(-c2nc(SCC(=O)c3ccc(Br)cc3)n[nH]2)cc1`, the “activity change, positive = activation” value was inactive: 9.16%. With `COc1cccc(-c2cc(C(=O)N3CCN(c4ccccc4OC)CC3)no2)c1`, the activity change, positive = activation was -3.69%. For `CCOc1ccccc1NC(=O)CC(c1ccc(F)cc1)N1Cc2ccccc2C1=O` (stereo unspecified), the activity change, positive = activation was -14.1%. As to `COc1ccc(CNC(=O)CCc2c(C)nn(-c3ccc(N4CCCCC4)nn3)c2C)cc1`, the activity change, positive = activation was -15.7%.

For `CCN(CC)CCCNC(=O)c1cc(-c2ccc(OC)c(OC)c2)on1`, the activity change, positive = activation is -3.11%. In the case of `COc1cc2c(cc1OC)C(c1ccc(Cl)cc1)N(c1ccc(C)c(F)c1)C(=O)C2` (stereo unspecified), the activity change, positive = activation is -33.2%. Consider `CC(=O)c1c(C)oc2c1cc(NS(=O)(=O)c1ccc(Br)cc1)c1ccccc12`, for which the “activity change, positive = activation” value is inactive: -39.3%. The same measure, in the same setting: in the case of `COc1ccc(C2C(=O)N(C3CCCCCC3)CC(=O)N2Cc2ccc(C)cc2)cc1` (stereo unspecified) it was -17.8%; in that of `O=C1C(c2ccc(F)cc2)N(CCc2ccc(Cl)cc2)C(=O)CN1C1CCCCCC1` (stereo unspecified), -37.9%; in that of `CC[C@@H](CO)NCCN[C@@H](CC)CO`, inactive: -0.0438%. On the same count and under the same terms, the result for `COc1cc(C2CC(=O)Nc3c2c(C)nn3-c2nncc(-c3ccc(C)cc3)n2)cc(OC)c1OC` (stereo unspecified) reads 6.51%; that for `CCc1ccc(NC(=O)CC2C(=O)N(c3cccc(OC)c3)C(=O)N2C2CCCC2)cc1` (stereo unspecified), -26.1%; that for `COc1ccccc1N1CCN(C(=O)C2CCN(S(=O)(=O)Cc3ccccc3)CC2)CC1`, -6.36%. Same read-out and setting: the result for `COc1ccccc1N1CCN(C(=O)c2cn(CC(C)C)c(=O)c3c2c2ccccc2n3C)CC1` reads inactive: -29.9%; that for `CCCOc1ccc(NC(=O)CC2C(=O)N(c3cccc(OC)c3)C(=O)N2Cc2cccs2)cc1` (stereo unspecified), -12.7%.

As for `Cc1ccc2nc(N3CCN(c4ccccc4)CC3)c3nnnn3c2c1`, the activity change, positive = activation amounted to 7.37%. `Cc1nn(Cc2ccc(Cl)c(Cl)c2)c(C)c1NC(=O)c1noc2c1CCc1ccccc1-2`: the activity change, positive = activation was -38.8%.

As to `CC(=O)c1ccc(S(=O)(=O)Nc2ccc(-c3ccc(N4CCCCCC4)nn3)cc2)cc1`, the activity change, positive = activation was -0.765%.

As for `CCOC(=O)c1ccc(NS(=O)(=O)c2ccc(-c3cc(C)no3)cc2)cc1`, the activity change, positive = activation is -22.2%. Regarding `Cc1c(NC(=O)Nc2ccc(Br)cc2F)sc2nc3n(c(=O)c12)CCC(C)CC3` (stereo unspecified), the activity change, positive = activation was 3.29%. As for `CCCCc1nn2c(=O)cc(COC(=O)c3cccc(NC(=O)CCc4ccccc4)c3)nc2s1`, the Potency is active: 251 nM.

For the molecule `Cc1ccc(CN2CCN(C3CCN(C(=O)c4ccccc4)CC3)C(=O)C2=O)cc1`, the activity change, positive = activation is -2.57%. As to `Cc1nc(-c2ccc(Cl)cc2)sc1CCNC(=O)Cc1ccc(F)cc1`, the “activity change, positive = activation” value is inactive: -38.2%.

With `CCN(CC)CCCNC(=O)CSc1c2c(nc3cc(Cl)ccc13)CCCC2`, the “activity change, positive = activation” value is inactive: -66.7%. Take `CCc1ccccc1NC(=O)Nc1ccc2c(c1)N(CC)C(=O)c1ccccc1S2`: the “activity change, positive = activation” value is inactive: -44.1%. As for `CCOc1ccc(CCNC(=O)CN2CCN(Cc3ccc(Cl)cc3)C2=O)cc1OCC`, the “activity change, positive = activation” value is inactive: -27.2%. For the molecule `COc1ccc(NC(=O)CC2C(=O)N(c3cccc(C)c3)C(=O)N2Cc2cccnc2)cc1` (stereo unspecified), the activity change, positive = activation was found to be 8.2%. Consider `Cc1nc2cccnc2n1C1CCN(S(=O)(=O)N(C)C)CC1`, for which the activity change, positive = activation came out at 0.892%. `Cc1ccccc1CNC(=O)C1CCN(S(=O)(=O)Cc2ccccc2)CC1`: the activity change, positive = activation was -2.62%. On to `Cc1cc(NC(=O)c2cc(-c3cccc(Cl)c3)on2)nn1Cc1ccc(Cl)cc1`, for which the “activity change, positive = activation” value is inactive: -41%.

In the case of `COC(=O)CN1C(=O)CSc2ccc(S(=O)(=O)Nc3cccc(Br)c3)cc21`, the activity change, positive = activation is -20%.

As for `CCc1ccc(NC(=O)CC2C(=O)N(c3cccc(C)c3)C(=O)N2CCC(C)C)cc1` (stereo unspecified), the activity change, positive = activation was -31.1%. Turning to `CC(C)OC(=O)C(C(=O)C(F)(F)F)c1cc(NS(=O)(=O)c2ccc3c4c(cccc24)C(=O)N3)ccc1O` (stereo unspecified), the activity change, positive = activation was -27.6%. For the molecule `Cc1cc(C)cc(OCCSc2nc(-c3ccc(C(C)(C)C)cc3)nc3cc(=O)[nH]n23)c1`, the activity change, positive = activation was -16.3%. Take `N#CC1=C2SCN(C3CCCCC3)CN2C(=O)CC1c1ccc(F)cc1` (stereo unspecified): the “activity change, positive = activation” value was inactive: -9.7%. As to `CC(=O)N1c2c(cc(Br)cc2S(=O)(=O)Nc2ccccc2C)CC1C` (stereo unspecified), the “activity change, positive = activation” value was inactive: -25.5%. With `O=C(Nc1cccc(C(F)(F)F)c1)c1ccc(F)c(S(=O)(=O)N2CCc3ccccc3C2)c1`, the “activity change, positive = activation” value was inactive: -39.8%. Regarding `CC1CCc2c(sc(NC(=O)c3cc(-c4ccc(Br)cc4)on3)c2C(N)=O)C1` (stereo unspecified), the activity change, positive = activation was found to be 6.29%. On the same count and under the same terms, in the case of `CCCCOc1ccc(CN2C(=O)C(=O)c3cc(C)ccc32)cc1OC` it was inactive: -2.33%. Same read-out and setting: the result for `COc1ccc(Cl)cc1NC(=O)COc1cccc2c(=O)n(C)ccc12` reads inactive: -6.52%; that for `COc1cc(NC(=O)c2noc3c2CC(C(C)(C)C)CC3)cc(OC)c1OC` (stereo unspecified), 5.89%.

Turning to `Cc1nn(-c2ccc(N3CCCC3)nn2)c(C)c1CCC(=O)N1CCN(c2ccc(F)cc2)CC1`, the activity change, positive = activation was -9.94%. In the case of `COc1ccc(Cl)cc1NC(=O)c1noc2c1CCc1ccccc1-2`, the activity change, positive = activation was 6.71%.

As to `CCOc1ccc2nc(Cl)c(C3CC(c4ccccc4)=NN3C(=O)CCC(=O)O)cc2c1` (stereo unspecified), the activity change, positive = activation amounted to 11.8%. `CCc1cc(=O)oc2c(C)c(OCC(=O)Nc3ccc(S(=O)(=O)N(CC)CC)cc3)ccc12`: the activity change, positive = activation is -12.6%.
